Hit rate of the full screen: of about 260,000 compounds, about 890 (0.34%) were called active. The inconclusive results got no clear call from the source; some entries with a clear call stand among them for comparison. Calls follow the shape of the dose curve; as a rule, active = well fitted activation curve with a large enough effect; inconclusive = small, poorly fitted or top-dose-only effect; inactive = no such curve, though single readings can be large or run the other way. No potency is given beside an inconclusive call; the fits are too rough.
target: Pyruvate kinase PKM (Homo sapiens) (UniProt P14618); test: qHTS Assay for Activators of Human Muscle isoform 2 Pyruvate Kinase; conditions: purified PKM2, Kinase-Glo ATP luminescence; Potency: activation; activation: at 57.5 µM (top of the series), 0% is enzyme alone, no compound; also: nearly all actives have a fitted effect of over 55% in size
Chain of UniProt P14618 (P14618 whole entry, looked up, canonical isoform): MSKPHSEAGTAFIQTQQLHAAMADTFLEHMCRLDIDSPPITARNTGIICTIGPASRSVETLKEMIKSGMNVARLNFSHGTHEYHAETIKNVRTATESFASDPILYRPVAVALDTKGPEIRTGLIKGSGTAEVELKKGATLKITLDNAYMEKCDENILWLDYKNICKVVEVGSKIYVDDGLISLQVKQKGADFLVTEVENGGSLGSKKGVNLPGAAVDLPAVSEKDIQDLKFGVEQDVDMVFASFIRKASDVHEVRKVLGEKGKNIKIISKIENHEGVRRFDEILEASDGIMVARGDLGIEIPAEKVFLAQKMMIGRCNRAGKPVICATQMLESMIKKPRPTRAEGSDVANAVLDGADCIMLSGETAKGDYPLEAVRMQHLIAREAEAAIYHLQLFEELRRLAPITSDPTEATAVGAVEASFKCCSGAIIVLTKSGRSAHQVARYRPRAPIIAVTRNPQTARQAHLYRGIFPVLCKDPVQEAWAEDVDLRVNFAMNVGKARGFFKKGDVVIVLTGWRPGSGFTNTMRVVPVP
Outline: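 Kinase-Glo luminescence reports ATP generated from ADP (0.1 mM) and PEP (0.5 mM) by purified hPK-M2 after 1 h at room temperature, pH 7.2 imidazole buffer; intermediate enzyme activity allows detecting inhibitors and activators.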
Potency is read from the fitted curve at half-maximal effect; tags tell the direction and shape of the fitted curve.

Row | SMILES | Potency
1 | O=S(=O)(NCc1cccnc1)c1cccn1-c1ncc(C(F)(F)F)cc1Cl | active: 22.4 µM
2 | O=C(NCC1OCCCN1S(=O)(=O)c1cc(F)ccc1F)C(=O)NC1CCCCC1 (configuration not stated) | inactive
3 | Cc1ccc(C(=O)Cn2cc([N+](=O)[O-])nc2C)cc1 | inconclusive [rising, single point]
4 | CC(=O)c1c(C)[nH]c(C(=O)Nc2ccc(Cl)cc2F)c1C | inconclusive [rising, partial curve]
5 | CC(=O)c1ccc(OC(=O)c2nc(-c3ccccc3)oc2C)cc1 | inactive
6 | COc1cc2c(cc1NC(=O)CN(C)Cc1ccc(OC)c(OC)c1)oc1ccccc12 | inactive
7 | CCOc1ccc(Nc2oc(-c3ccco3)nc2C#N)cc1 | inactive
8 | O=c1cc2c(nn1Cc1ccccc1)-c1ccccc1CC2 | inactive
9 | Cc1ccc(S(=O)(=O)Nc2cccc3ncccc23)s1 | inconclusive [rising, single point]
10 | Cc1ccc(NS(=O)(=O)c2ccc3c(c2)n(C)c(=O)n3C)cc1C | active: 1.58 µM
11 | O=C(CCC1CCCN(C(=O)c2cc(C3CC3)[nH]n2)C1)N1CCN(c2ccccn2)CC1 (configuration not stated) | inconclusive [rising, single point]
12 | C=CCN(c1ccc(C(=O)Nc2cccc([N+](=O)[O-])c2)cc1)S(C)(=O)=O | inconclusive [rising, single point]
13 | Cc1cc(NC(=O)CCCN2C(=O)c3cccnc3C2=O)no1 | inactive
14 | O=C(CNC(=S)NC(=O)c1cccs1)c1ccccc1 | inactive
15 | COc1cc2c(C(=O)NCc3ccc(C)o3)cn(CC(C)C)c(=O)c2cc1OC | active: 14.1 µM
16 | COCCNC(=O)C1(CC(C)C)C=CCN1C(C)=O (configuration not stated) | inactive
17 | N#CC1=C(N)Oc2c(oc(CO)cc2=O)C1c1ccccc1[N+](=O)[O-] (configuration not stated) | inactive
18 | COc1ccc(CNc2ncc(-c3ccccc3)n2C)c(OC)c1OC | inconclusive [rising, single point]
19 | CC1CN(c2nc3c(c(=O)[nH]c(=O)n3C)n2Cc2ccccc2F)CC(C)O1 (configuration not stated) | inconclusive [rising, full curve]
20 | COC(=O)CNC(c1ccccc1)c1cc(Br)ccc1NC(=O)CCN1CCOCC1 (configuration not stated) | inactive
21 | O=[N+]([O-])c1cccc(CSc2nnc(Cc3ccccc3)n2-c2ccc(F)cc2)c1 | inactive
22 | Cc1ccc(-c2ccc(SCC(=O)Nc3cc(C)on3)nn2)cc1 | inconclusive [rising, single point]
23 | COC(=O)C1CCCN1S(=O)(=O)c1ccc2ccccc2c1 (configuration not stated) | inactive
24 | C=CCOCCN1C(=O)C2C3C=CC(C2C1=O)C1C2C(=O)N(CCOCC=C)C(=O)C2C31 (configuration not stated) | inconclusive [rising, single point]

Row | SMILES | Potency
25 | CCCn1c(-c2ccc(F)cc2)nc2c(NCCCN3CCCCC3C)nc(C)nc21 (configuration not stated) | inactive
26 | CN1CCc2cccc3c2C1Cc1ccc(O)c(O)c1-3 (configuration not stated) | inconclusive [rising, single point]
27 | COc1ccc(NC(=O)CSc2ccc(-c3sc(C)nc3C)nn2)cc1OC | inconclusive [rising, partial curve]
28 | CCOC(=O)N1CCC(=NNC(=O)COc2ccc(OC)cc2)CC1 | inconclusive [rising, single point]
29 | C/C=C\C=C/C(=O)Nc1cccc(C2=NOC3(C2)C[C@@H](C(N)=O)N(C(=O)/C=C/CC)C3)c1 (some centres not stated) | inconclusive [rising, partial curve]
30 | CC(C)(C)C1=CC(=O)C(=O)C(C(C)(C)C)=C1 | inconclusive [rising, partial curve]
31 | COc1cccc(NC(=O)CSc2nc3c(c(=O)n2C)SC(C)C3)c1 (configuration not stated) | inconclusive [rising, full curve]
32 | CSc1nc2nc3c(cc2c(=O)n1-c1ccccc1)COC(C)(C)C3 | inactive
33 | Cc1nnc(SCc2ccccc2CSc2nnc(C)s2)s1 | inconclusive [rising, partial curve]
34 | Cc1cccc(OCCOC(=O)C2CCN(S(=O)(=O)c3cccs3)CC2)c1 | inconclusive [rising, single point]
35 | CC1=C(C)/C(=N\OS(=O)(=O)c2ccc(C)cc2)C=CC1=O | inconclusive [rising, full curve]
36 | Cc1cc(-c2nnc(SCC(=O)Nc3nccs3)o2)no1 | active: 15.8 µM
37 | CCN(CC)c1ccc2cc(C(=O)NNC(=O)c3ccc(S(=O)(=O)N4CCCCC4)cc3)c(=O)oc2c1 | inactive
38 | O=C(NC1=NCCS1)[C@H](Cc1ccccc1)N1C(=O)c2ccccc2C1=O | inconclusive [rising, partial curve]
39 | O=S(=O)(Nc1ccccc1Cl)c1ccc(NS(=O)(=O)c2cccs2)cc1 | inconclusive [rising, partial curve]
40 | O=C(O)c1cccc(Cn2c(Cl)c(/C=N/NC(=O)c3ccccc3Cl)sc2=O)c1 | inactive
41 | O=C(CCc1ccccc1)NN1C(=O)C2C3C=CC(O3)C2C1=O (configuration not stated) | inconclusive [rising, single point]
42 | COC(=O)c1ccc(C(=O)OC)c(NC(=O)CCc2ccc(C)o2)c1 | inconclusive [rising, single point]
43 | CC(C)(C)OC(=O)NN=C(c1ccc(O)cc1)c1ccc(O)cc1 | inactive
44 | COc1ccc(-n2c(NC(=O)c3ccc(Br)o3)c(C#N)c3nc4ccccc4nc32)cc1 | inconclusive [rising, single point]
45 | CCCC(=O)Nn1cnc2c(c1=O)C1(CCCCC1)Cc1ccccc1-2 | inconclusive [rising, single point]
46 | CCCNC(=O)/C=C/c1ccc(C(C)C)cc1 | inactive
47 | O=C(O)CCc1ccc(-c2ccc(Cl)cc2)o1 | inconclusive [rising, single point]
48 | Nc1nc(CSc2ncn(-c3ccccc3)n2)cs1 | inconclusive [rising, single point]

Row | SMILES | Potency
49 | Cc1ccc(S(=O)(=O)N2CCCC2C(=O)OCc2ccco2)cc1 (configuration not stated) | inactive
50 | CCOC(=O)C1=C(C)N(c2ccc(OC)cc2)C(=O)/C1=C\c1ccc(O)c(OCC)c1 | inconclusive [rising, partial curve]
51 | Cc1ccc2nc(-c3cccc(NC(=O)c4ccc5c(c4)OCCO5)c3)oc2c1 | inconclusive [rising, partial curve]
52 | Cc1ccc(CNC(=O)C2CCN(S(=O)(=O)c3cccs3)CC2)o1 | inconclusive [rising, partial curve]
53 | CC1(C)Cc2c(C#N)c(N3CCN(C(=O)c4ccccc4)CC3)nc(-c3ccco3)c2CS1 | inconclusive [rising, partial curve]
54 | O=C(Cc1cccs1)N1CCC(c2nc3c(nnn3Cc3ccccc3Cl)c(=O)[nH]2)CC1 | inconclusive [rising, partial curve]
55 | CC(C)OC(=O)CC(=O)CSc1nc(-c2ccc(F)cc2)cc(-c2ccccc2)c1C#N | inactive
56 | COc1ccc(S(=O)(=O)N(C)C)cc1NCC(=O)Nc1ccc(Br)c(C)c1 | inconclusive [rising, single point]
57 | COc1ccccc1N(CC(=O)NC(C)(C)C)C(=O)Cn1nnc(-c2ccc(C)o2)n1 | inconclusive [rising, single point]
58 | CCNc1nc(SCC(=O)Nc2ccc(Cl)c(Cl)c2)nc(N2CCOCC2)n1 | inconclusive [rising, partial curve]
59 | N#Cc1c(-c2ccco2)cc(-c2ccccc2)[nH]c1=O | inconclusive [rising, single point]
60 | C/C(=N/NC(=O)c1ccncc1)c1cc2ccc(O)cc2oc1=O | inactive
61 | CCOC(=O)c1ccc(-c2ccc(/C=N/NC(=O)CN(c3ccccc3Br)S(C)(=O)=O)o2)cc1 | inconclusive [rising, partial curve]
62 | COc1ccc(CN2C(=O)/C(=C/c3ccncc3)SC2=S)cc1 | inconclusive [rising, single point]
63 | CCCCNc1nnc(SCC(=O)c2c[nH]c3ccccc23)s1 | inconclusive [rising, partial curve]
64 | N#C/C(=C\c1ccc(C#N)cc1)C(=O)c1ccccc1 | active: 22.4 µM
65 | Cc1cc(C)cc(C(=O)NC(CC(N)=O)c2ccc(N3CCC(Cc4ccccc4)CC3)c([N+](=O)[O-])c2)c1 (configuration not stated) | inconclusive [rising, single point]
66 | CN(C)c1[nH]c(=O)c(C#N)c2c1CCN2Cc1ccccc1 | inconclusive [rising, single point]
67 | O=C(Nc1ccc(S(=O)(=O)N2CCc3ccccc32)cc1)c1ccco1 | inconclusive [rising, single point]
68 | O=C(CCCNS(=O)(=O)c1cccc2nsnc12)NCc1ccccc1 | inconclusive [rising, full curve, poor fit]
69 | COc1ccc(N(C(C)C(=O)N/N=C/c2cc(Br)c(C)o2)S(C)(=O)=O)cc1 (configuration not stated) | inconclusive [rising, single point]
70 | COc1cc(N=c2ssnc2Cl)cc(OC)c1OC | inactive
71 | O=C(N/N=C\c1ccc(-c2ccc([N+](=O)[O-])cc2)o1)C1COc2ccccc2O1 (configuration not stated) | inconclusive [rising, partial curve, poor fit]
72 | CC(=O)N=C1SC2CS(=O)(=O)CC2N1c1ccc(-c2nc3ccc(C)cc3s2)cc1 (configuration not stated) | inconclusive [rising, full curve]

Source: PubChem BioAssay AID1631 (National Center for Advancing Translational Sciences (NCATS), 2009)
